Measurements published in PubChem BioAssay AID686970 (National Center for Advancing Translational Sciences (NCATS), 2013).
Out of some 360,000 compounds screened, about 6,000 (1.7%) were called active. Inconclusive results, whose numbers are uncertain, are shown with a selection of clear calls. Calls come from the whole dose curve; as a rule, active = well fitted cell-killing curve with a large enough effect; inconclusive = small, poorly fitted or top-dose-only effect, or effect the other way; inactive = flat fitted curve, though single readings scatter. No potency is given beside an inconclusive call; the fits are too rough.
Potency is the fitted concentration of half-maximal effect; tags give direction and shape of the fitted curve.

Test: qHTS for induction of synthetic lethality in tumor cells producing 2HG: qHTS for the HT-1080-NT fibrosarcoma cell line;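 note: NT is the 2HG producing partner of a matched IDH1 knockdown line; nearly all actives have a fitted effect of over 55% in size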;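 for activity, negative = less viability: 0% = DMSO-treated cells and -100% = media-only wells without cells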
Details: HT-1080-NT fibrosarcoma viability, CellTiter-Glo ATP luminescence, 48 h; activity, negative = less viability: at 46.1 µM (top of the series) unless noted
In short: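 Viability by CellTiter-Glo luminescence after 48 h compound exposure at 37C of HT-1080-NT cells (750/well, RPMI, 5% FBS). % activity scaled between DMSO wells and medium-only wells, then curve-fitted and categorized by curve class.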
With `CCCCCCCCN1C(=O)[C@H](CC(=O)N2CCCC2)C[C@@]2(C(=O)OC)CC(C)(C)CC=C12` the Potency was inconclusive [cytotoxic, single point]. With `O=C(/C=C/c1cccnc1)c1ccc([N+](=O)[O-])cc1` the Potency was inconclusive [cytotoxic, single point]. For `Cc1cc(NC(=O)Nc2ccc(OCc3ccccc3)cc2)n(C)n1`, the Potency was inconclusive [cytotoxic, partial curve]. For `CC(C)C(NC(=O)C1CCC(C(C)(C)C)CC1)C(=O)NCCCN1CCCCC1` (configuration not stated), the Potency was inconclusive [rising, single point]. With `C=C[C@@H]1c2c(F)cccc2N(S(=O)(=O)c2ccc(C)cc2)[C@H](c2ccc(OC(C)=O)cc2)C1(C#N)C#N` the Potency was inconclusive [cytotoxic, single point]. With `O=C(O)c1ccc(C2NCC(c3ccccc3Cl)c3c2[nH]c2ccccc32)cc1` (configuration not stated) the “activity, negative = less viability” value was inactive: -22.9%. In the case of `O=C(Nc1nc2ccc(F)cc2s1)C1=COCCO1`, the Potency is reported as inconclusive [cytotoxic, single point]. For `Cc1ccc(NS(=O)(=O)c2cc(NC(=O)c3cc(=O)[nH]c(=O)[nH]3)ccc2Cl)c(C)c1`, the Potency was inconclusive [cytotoxic, single point]. With `CC1COc2ccccc2N1C(=O)c1ccccc1Cl` (configuration not stated) the “activity, negative = less viability” value was inactive: 0.28%. With `Cn1c2ccccc2c2nnc(SCC(=O)NC3CC3)nc21` the Potency was inconclusive [rising, single point]. With `CCCCCCCCCCS(=O)(=O)N/N=C/c1ccc(O)cc1` the Potency was inconclusive [cytotoxic, single point]. With `Cn1c(-c2ccccc2O)cc2ccccc21` the Potency was inconclusive [cytotoxic, single point]. With `COc1ccc(/C=C/C(=O)c2cc(F)ccc2OC(=O)c2ccccc2OC)cc1OC` the Potency was active: 1.03 µM. With `Oc1ccc(CCC2CCCCN2Cc2nc(C3CC3)no2)cc1` (configuration not stated) the Potency was inconclusive [cytotoxic, single point]. With `Cc1cccc(NC(=S)Nc2ccc(Cl)c(Cl)c2)c1` the Potency was inconclusive [cytotoxic, single point]. In the case of `CC(CCc1ccccn1)C(=O)c1ccccc1` (configuration not stated), the “activity, negative = less viability” value is reported as inactive: -0.646%. With `CCOC(=O)c1c(-c2ccc(C)o2)csc1NC(=O)CSc1nnc(C)s1` the Potency was inconclusive [cytotoxic, single point]. For `O=C(Nc1ccc(S(=O)(=O)N2CCCCC2)cc1)C1CC(=O)N(c2ccc(F)cc2)C1` (configuration not stated), the Potency was inconclusive [cytotoxic, single point]. For `CCCCc1cc(=O)oc2cc(C)c(CN3CCCC3)c(O)c12`, the Potency was inconclusive [cytotoxic, single point]. In the case of `Cc1ccc(C(=O)Nc2cccc(C(=O)N/N=C/c3ccccc3F)c2)cc1`, the Potency is reported as inconclusive [cytotoxic, partial curve]. In the case of `Fc1cc(Br)ccc1NC(=S)NCCc1ccccc1`, the Potency is reported as inconclusive [cytotoxic, single point]. For `CCc1nc(N2CCN(C(=O)c3ccco3)CC2)c2oc3ccccc3c2n1`, the Potency was inconclusive [cytotoxic, single point]. With `CCCNC(=O)C1(C)CCN(C(=O)c2ccccc2OC)C1` (configuration not stated) the “activity, negative = less viability” value was inactive: 7.5%. For `CC(=O)N1CCc2cc(S(=O)(=O)Nc3ccc(C)cc3C)ccc21`, the “activity, negative = less viability” value was inactive: -9.83%. In the case of `CC(=O)c1ccc(OCC(=O)Nc2cccc(S(=O)(=O)N3CCCC3)c2)cc1`, the Potency is reported as active: 16.4 µM. With `N#Cc1ccc(Nc2nc(-c3ccccc3)c(C(=O)c3ccccc3)s2)cc1` the Potency was inconclusive [cytotoxic, single point]. With `CCN(CC)c1ccc(N=Cc2ccc([N+](=O)[O-])o2)cc1` the Potency was active: 18.4 µM. For `Cc1cccc(NC(=S)NCCc2ccccc2)c1C`, the “activity, negative = less viability” value was inactive: -6.26%. For `Cc1cccc(Sc2c([N+](=O)[O-])ncn2C)c1`, the “activity, negative = less viability” value was inactive: 1.86%. In the case of `CCCCNc1c(-c2cccc(-c3cc(C(C)=O)cs3)c2)nc2ccc(C)cn12`, the Potency is reported as active: 20.6 µM. With `COC(=O)c1cc2ccccc2c(-c2c(O)ccc3ccccc23)c1O` the Potency was inconclusive [cytotoxic, single point]. With `CCOc1ccc2[nH]c(=O)c(CN(CCN3CCCC3)C(=S)Nc3ccccc3OC)cc2c1` the Potency was inconclusive [cytotoxic, partial curve]. In the case of `CCOC(=O)c1sc(NC(=O)c2cccc(S(=O)(=O)N(CC)CC)c2)cc1C`, the Potency is reported as inconclusive [cytotoxic, full curve, poor fit]. For `Cc1ccc2nc(-c3ccc(NC(=O)CSc4nc(N)cc(=O)[nH]4)cc3)sc2c1`, the Potency was active: 9.2 µM. For `Fc1ccc(-c2cc3nc4c(c(N5CCOCC5)n3n2)CCCC4)cc1`, the Potency was inconclusive [cytotoxic, single point]. With `O=S1(=O)CC(N2CCN(CCO)CC2)CN1Cc1ccc(F)cc1` (configuration not stated) the Potency was inconclusive [rising, single point]. With `COc1ccc(CNC(=O)Cn2cc(C)c(=O)[nH]c2=O)cc1` the “activity, negative = less viability” value was inactive: -0.599%. For `O=C(O)C1CCN(C(=O)c2ccc(Cl)cc2)CC1`, the “activity, negative = less viability” value was inactive: 11%. For `Cc1cc(C)cc(OCCCOc2cccc3cccnc23)c1`, the Potency was inconclusive [cytotoxic, single point]. In the case of `O=C(CCN1C(=O)c2ccccc2S1(=O)=O)Nc1ccc(Cl)cc1`, the “activity, negative = less viability” value is reported as inactive: -7.97%. With `CC1=CC(C)(C)N(C(=O)CSc2nnc(-c3ccccc3)o2)c2ccc(C)cc21` the Potency was inconclusive [cytotoxic, single point]. For `COc1ccc(-c2cc3c(=O)n(CC(=O)NCc4cccnc4)ncn3n2)cc1`, the Potency was inconclusive [cytotoxic, single point]. For `COc1ccccc1N1CCN(C(=O)c2ccc3c(Cl)c4c(nc3c2)CCCC4)CC1`, the Potency was inconclusive [cytotoxic, single point]. For `CCOC(=O)C1CCN(C(=O)CCc2c(C)nc3cc(-c4ccc(OC)cc4OC)nn3c2C)CC1`, the “activity, negative = less viability” value was inactive: 6.74%. For `O=C(CSc1nnc(-c2cccnc2)n1-c1ccccc1)Nc1ccc2c(c1)OCO2`, the Potency was inconclusive [cytotoxic, single point]. With `COc1ccc(CCNC(=O)c2cc3c(=O)n4ccccc4nc3n(CCCN3CCOCC3)c2=N)cc1OC` the “activity, negative = less viability” value was inactive: -2.12%. For `COc1ccc(CC2C(=O)NC(C)C(=O)N(C)C3Cc4ccc(cc4)Oc4cc(ccc4O)CC(C(=O)NC(C)C(=O)NC(C)C(=O)N2C)N(C)C3=O)cc1` (configuration not stated), the Potency was active: 0.326 µM. With `COc1ccc(S(=O)(=O)Nc2cccc3c2O[C@H](CN(C)S(=O)(=O)c2ccc(F)cc2)[C@H](C)CN([C@H](C)CO)C3=O)cc1` the activity, negative = less viability was inconclusive: 36.8%. For `COC(=O)COc1cccc2c(=O)n(CC(=O)NCc3ccccc3)ccc12`, the Potency was active: 2.59 µM. In the case of `COc1cnc(-c2ccccn2)nc1N(C)C`, the Potency is reported as inconclusive [cytotoxic, full curve]. In the case of `Cc1cc(C)c2cc(C(O)c3nnnn3Cc3ccccc3)c(=O)[nH]c2c1` (configuration not stated), the “activity, negative = less viability” value is reported as inactive: 5.1%. With `CCOC(=O)[C@]12CCCC=C1N(CCc1ccc(OC)c(OC)c1)C(=O)[C@H](CC(=O)NCC13CC4CC(CC(C4)C1)C3)C2` the “activity, negative = less viability” value was inactive: -20.6%. In the case of `CCOc1ccc(S(=O)(=O)Nc2ccc(C(=O)NCC3(N4CCCCC4)CCCCC3)cc2)cc1`, the Potency is reported as inconclusive [cytotoxic, single point]. For `O=C(c1ccc(-c2ccccc2)cc1)C1CCCN(Cc2ccncc2)C1` (configuration not stated), the Potency was inconclusive [cytotoxic, single point]. In the case of `Cc1ccccc1OCC(O)CN1CCC(C)CC1` (configuration not stated), the “activity, negative = less viability” value is reported as inactive: -2.9%. For `CCOc1ccc(-n2c(O)c(/C=N/Nc3nnc(C)c(=O)[nH]3)c3ccccc3c2=O)cc1`, the Potency was inconclusive [cytotoxic, full curve, poor fit]. With `CCCN(CCC)CCCNC(=O)c1cc2c(=O)n(C)c3ccccc3c2n1C` the Potency was inconclusive [cytotoxic, partial curve]. With `C=CCOc1ccccc1CN1CCCC(CCC(=O)N(C)CCc2ccccn2)C1` (configuration not stated) the “activity, negative = less viability” value was inactive: 0.642%. In the case of `Cc1c2ccncc2cc2c1[nH]c1ccccc12`, the Potency is reported as active: 18.4 µM. For `COc1cc(/C=N/n2c(SC)nnc(C(C)(C)C)c2=O)ccc1O`, the “activity, negative = less viability” value was inactive: 3.13%. For `CCOC(=O)Cc1c(C)c2ccc(N(CC)CC)cc2oc1=O`, the activity, negative = less viability was inconclusive: 10%. For `CC(=O)N(Cc1ccccc1)Cc1cn(CCC#N)nc1-c1cccc([N+](=O)[O-])c1`, the “activity, negative = less viability” value was inactive: 0.571%. With `CCCc1nc2oc3c(NCCCN(C)C)ncnc3c2c2c1CCCC2` the “activity, negative = less viability” value was inactive: -24.1%. For `Cc1ccccc1OCc1nnc(SCCN2CCCC2)n1-c1ccccc1`, the Potency was inconclusive [cytotoxic, single point]. For `COc1ccc(CCNC(=O)c2cc3c(=O)n4cccc(C)c4nc3n(CCCN3CCOCC3)c2=N)cc1`, the Potency was inconclusive [cytotoxic, single point]. With `Cc1ccc(Nc2nc(N)nc(CCl)n2)c(C)c1` the Potency was active: 5.8 µM. In the case of `CCCC(C)(C)C(=O)N1CCC1(C)C(=O)Nc1cccc(OC)c1` (configuration not stated), the “activity, negative = less viability” value is reported as inactive: 17.4%. For `OC(COc1c(Cl)cc(Cl)cc1Cl)CN1CCCCC1` (configuration not stated), the Potency was inconclusive [cytotoxic, single point]. In the case of `CC(CCc1ccccc1)NC(=O)c1ccc(NC(=O)c2cccc(Br)c2)cc1` (configuration not stated), the “activity, negative = less viability” value is reported as inactive: -4.9%. For `CCOC(=O)COc1ccc(S(=O)(=O)Nc2ccc(C)cc2)cc1`, the Potency was inconclusive [cytotoxic, single point]. For `Cc1ccc(C(=O)Nc2nc(C(N)Cc3ccc(C(F)(F)F)cc3)cs2)cc1` (configuration not stated), the Potency was inconclusive [cytotoxic, single point]. With `COc1ccc(C)cc1NC(=O)C(OC(=O)c1ccc(Cl)c(S(=O)(=O)N(C)c2ccccc2)c1)c1ccccc1` (configuration not stated) the Potency was inconclusive [rising, single point].
